# The other results are listed elsewhere or left out.
# B1: PA-IL (Pseudomonas aeruginosa), Q05097 (protein)
# chain: MAWKGEVLANNEAGQVTSIIYNPGDVITIVAAGWASYGPTQKWGPQGDREHPDQGLICHDAFCGALVMKIGNSGTIPVNTGLFRWVAPNNVQGAITLIYNDVPGTYGNNSGSFSVNIGKDQS
# Experiments:
# Assay in all cases: glycan array binding signal (z-score within array); higher = stronger binding
# Details in all cases: glycan notation: IUPAC condensed, linker removed
# Gal(b1-4)GlcNAc(b1-2)Man = molecular target: Gal(b1-4)GlcNAc(b1-2)Man
# Summary of the method: (§1)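 Columns mapping to the same glycan were averaged after glycan names were converted to IUPAC-condensed notation. The data come from 3228 arrays in the Consortium for Functional Glycomics database, limited to those with an available protein sequence. Binding is reported as a within-array Z-score averaged across arrays of one protein sequence and across linkers.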
# [1] = molecular target: Gal(b1-4)GlcNAc(b1-2)Man(a1-3)Man(b1-4)GlcNAc(b1-4)GlcNAc
# Summary of the method: as §1
# [2] = molecular target: Gal(b1-4)GlcNAc(b1-2)Man(a1-3)[Gal(b1-4)GlcNAc(b1-2)Man(a1-6)]Man(b1-4)GlcNAc(b1-4)GlcNAc
# Summary of the method: as §1
# [3] = molecular target: Gal(b1-4)GlcNAc(b1-2)Man(a1-3)[Gal(b1-4)GlcNAc(b1-2)Man(a1-6)]Man(b1-4)GlcNAc(b1-4)[Fuc(a1-6)]GlcNAc
# Summary of the method: as §1
# [4] = molecular target: Gal(b1-4)GlcNAc(b1-2)Man(a1-3)[Gal(b1-4)GlcNAc(b1-2)Man(a1-6)][Gal(b1-4)GlcNAc(b1-4)]Man(b1-4)GlcNAc(b1-4)[Fuc(a1-6)]GlcNAc
# Summary of the method: as §1
# [5] = molecular target: Gal(b1-4)GlcNAc(b1-2)Man(a1-3)[Gal(b1-4)GlcNAc(b1-2)Man(a1-6)][GlcNAc(b1-4)]Man(b1-4)GlcNAc(b1-4)[Fuc(a1-6)]GlcNAc
# Summary of the method: as §1
# [6] = molecular target: Gal(b1-4)GlcNAc(b1-2)Man(a1-3)[Gal(b1-4)GlcNAc(b1-2)][GlcNAc(b1-4)]Man(b1-4)GlcNAc(b1-4)GlcNAc
# Summary of the method: as §1
# [7] = molecular target: Gal(b1-4)GlcNAc(b1-2)Man(a1-3)[GlcNAc(b1-2)Man(a1-6)]Man(b1-4)GlcNAc(b1-4)GlcNAc
# Summary of the method: as §1
# [8] = molecular target: Gal(b1-4)GlcNAc(b1-2)Man(a1-3)[GlcNAc(b1-4)][Gal(b1-4)GlcNAc(b1-2)Man(a1-6)]Man(b1-4)GlcNAc(b1-4)GlcNAc
# Summary of the method: as §1
# [9] = molecular target: Gal(b1-4)GlcNAc(b1-2)Man(a1-3)[Man(a1-6)]Man(b1-4)GlcNAc(b1-4)GlcNAc
# Summary of the method: as §1
# [10] = molecular target: Gal(b1-4)GlcNAc(b1-2)Man(a1-6)Man(b1-4)GlcNAc(b1-4)GlcNAc
# Summary of the method: as §1
# [11] = molecular target: Gal(b1-4)GlcNAc(b1-2)Man(a1-6)[GlcNAc(b1-2)Man(a1-3)]Man(b1-4)GlcNAc(b1-4)GlcNAc
# Summary of the method: as §1
# [12] = molecular target: Gal(b1-4)GlcNAc(b1-2)Man(a1-6)[Man(a1-3)]Man(b1-4)GlcNAc(b1-4)GlcNAc
# Summary of the method: as §1
# [13] = molecular target: Gal(b1-4)GlcNAc(b1-2)[Gal(b1-4)GlcNAc(b1-4)]Man(a1-3)[Gal(b1-4)GlcNAc(b1-2)Man(a1-6)]Man(b1-4)GlcNAc(b1-4)GlcNAc
# Summary of the method: as §1
# [14] = molecular target: Gal(b1-4)GlcNAc(b1-2)[Gal(b1-4)GlcNAc(b1-4)]Man(a1-3)[Gal(b1-4)GlcNAc(b1-2)[Gal(b1-4)GlcNAc(b1-6)]Man(a1-6)]Man(b1-4)GlcNAc(b1-4)GlcNAc
# Summary of the method: as §1
# [15] = molecular target: Gal(b1-4)GlcNAc(b1-2)[Gal(b1-4)GlcNAc(b1-4)]Man(a1-3)[GlcNAc(b1-4)][Gal(b1-4)GlcNAc(b1-2)Man(a1-6)]Man(b1-4)GlcNAc(b1-4)GlcNAc
# Summary of the method: as §1
# [16] = molecular target: Gal(b1-4)GlcNAc(b1-2)[Gal(b1-4)GlcNAc(b1-4)]Man(a1-3)[GlcNAc(b1-4)][Gal(b1-4)GlcNAc(b1-2)[Gal(b1-4)GlcNAc(b1-6)]Man(a1-6)]Man(b1-4)GlcNAc(b1-4)GlcNAc
# Summary of the method: as §1
# [17] = molecular target: Gal(b1-4)GlcNAc(b1-2)[Gal(b1-4)GlcNAc(b1-6)]Man(a1-6)[Gal(b1-4)GlcNAc(b1-2)Man(a1-3)]Man(b1-4)GlcNAc(b1-4)GlcNAc
# Summary of the method: as §1
# [18] = molecular target: Gal(b1-4)GlcNAc(b1-2)[Gal(b1-4)GlcNAc(b1-6)]Man(a1-6)[Gal(b1-4)GlcNAc(b1-2)Man(a1-3)]Man(b1-4)GlcNAc(b1-4)[Fuc(a1-6)]GlcNAc
# Summary of the method: as §1
# [19] = molecular target: Gal(b1-4)GlcNAc(b1-2)[Gal(b1-4)GlcNAc(b1-6)]Man(a1-6)[GlcNAc(b1-4)][Gal(b1-4)GlcNAc(b1-2)Man(a1-3)]Man(b1-4)GlcNAc(b1-4)GlcNAc
# Summary of the method: as §1
# [20] = molecular target: Gal(b1-4)GlcNAc(b1-2)[Gal(b1-4)GlcNAc(b1-6)]Man(a1-6)[GlcNAc(b1-4)][Gal(b1-4)GlcNAc(b1-2)[Gal(b1-4)GlcNAc(b1-4)]Man(a1-3)]Man(b1-4)GlcNAc(b1-4)[Fuc(a1-6)]GlcNAc
# Summary of the method: as §1
# [21] = molecular target: Gal(b1-4)GlcNAc(b1-3)Gal(b1-3)GalNAc
# Summary of the method: as §1
binder,measurement,setting,value
B1,glycan array binding signal (z-score),Gal(b1-4)GlcNAc(b1-2)Man,-0.216
same,glycan array binding signal (z-score),[1],-0.232
same,glycan array binding signal (z-score),[2],-0.23
same,glycan array binding signal (z-score),[3],-0.228
same,glycan array binding signal (z-score),[4],-0.242
same,glycan array binding signal (z-score),[5],-0.231
same,glycan array binding signal (z-score),[6],-0.226
same,glycan array binding signal (z-score),[7],-0.217
same,glycan array binding signal (z-score),[8],-0.237
same,glycan array binding signal (z-score),[9],-0.228
same,glycan array binding signal (z-score),[10],-0.222
same,glycan array binding signal (z-score),[11],-0.22
same,glycan array binding signal (z-score),[12],-0.237
same,glycan array binding signal (z-score),[13],-0.216
same,glycan array binding signal (z-score),[14],-0.228
same,glycan array binding signal (z-score),[15],-0.234
same,glycan array binding signal (z-score),[16],-0.227
same,glycan array binding signal (z-score),[17],-0.24
same,glycan array binding signal (z-score),[18],-0.237
same,glycan array binding signal (z-score),[19],-0.221
same,glycan array binding signal (z-score),[20],-0.222
same,glycan array binding signal (z-score),[21],-0.241

# From the supplement of paper PMC8728848
